Results are given in words; binding and its absence hold for the method and conditions named. Binding seen in cells or lysates may run through a third protein. Some entries that bind do so weakly or less than the wild type. For some assays here: Tags and fused reporters may be left off the sequences shown.

The chains behind the UniProt entries cited, without tags or fusion partners. Where a name states a change or a piece, a line headed by the entry shows the natural chain unless it says otherwise. Residues count along the entry.
UniProt Q9H6L5: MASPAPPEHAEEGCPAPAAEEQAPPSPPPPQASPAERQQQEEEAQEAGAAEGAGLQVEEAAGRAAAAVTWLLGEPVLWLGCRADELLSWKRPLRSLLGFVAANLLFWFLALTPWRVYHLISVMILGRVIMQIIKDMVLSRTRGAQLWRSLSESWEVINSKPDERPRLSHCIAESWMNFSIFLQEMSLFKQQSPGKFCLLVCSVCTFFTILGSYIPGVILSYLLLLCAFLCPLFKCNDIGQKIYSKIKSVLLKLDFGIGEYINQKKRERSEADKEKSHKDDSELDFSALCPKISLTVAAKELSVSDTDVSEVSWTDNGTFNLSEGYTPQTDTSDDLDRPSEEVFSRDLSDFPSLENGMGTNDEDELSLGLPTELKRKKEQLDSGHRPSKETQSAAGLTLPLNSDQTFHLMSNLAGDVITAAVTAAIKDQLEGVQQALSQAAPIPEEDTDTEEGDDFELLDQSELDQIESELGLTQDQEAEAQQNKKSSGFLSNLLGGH
UniProt Q86VR2: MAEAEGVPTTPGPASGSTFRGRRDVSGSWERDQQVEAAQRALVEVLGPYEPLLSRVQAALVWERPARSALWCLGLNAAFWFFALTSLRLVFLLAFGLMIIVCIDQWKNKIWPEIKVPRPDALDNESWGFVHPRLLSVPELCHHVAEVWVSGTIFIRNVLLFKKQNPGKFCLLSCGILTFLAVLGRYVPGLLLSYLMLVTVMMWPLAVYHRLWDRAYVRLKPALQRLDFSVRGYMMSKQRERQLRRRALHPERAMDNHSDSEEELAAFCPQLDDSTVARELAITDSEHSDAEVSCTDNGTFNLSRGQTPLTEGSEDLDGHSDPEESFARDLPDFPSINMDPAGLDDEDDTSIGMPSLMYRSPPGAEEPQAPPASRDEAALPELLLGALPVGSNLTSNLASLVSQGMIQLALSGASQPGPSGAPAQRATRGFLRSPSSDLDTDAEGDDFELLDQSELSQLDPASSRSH
UniProt P36894: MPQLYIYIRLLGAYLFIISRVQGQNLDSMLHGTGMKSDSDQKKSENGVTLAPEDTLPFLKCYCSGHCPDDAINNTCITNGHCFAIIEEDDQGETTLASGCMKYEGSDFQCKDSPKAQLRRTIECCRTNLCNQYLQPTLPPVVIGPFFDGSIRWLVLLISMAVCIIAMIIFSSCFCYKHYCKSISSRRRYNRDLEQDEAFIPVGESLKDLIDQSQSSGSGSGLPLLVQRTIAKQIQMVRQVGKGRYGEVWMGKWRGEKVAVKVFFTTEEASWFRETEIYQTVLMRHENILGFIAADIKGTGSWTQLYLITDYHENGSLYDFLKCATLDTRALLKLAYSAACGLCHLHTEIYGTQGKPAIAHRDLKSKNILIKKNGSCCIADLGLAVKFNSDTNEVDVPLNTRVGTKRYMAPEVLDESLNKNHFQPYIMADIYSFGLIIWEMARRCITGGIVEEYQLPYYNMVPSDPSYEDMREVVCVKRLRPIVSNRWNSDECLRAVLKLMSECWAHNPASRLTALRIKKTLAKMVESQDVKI
UniProt Q99717: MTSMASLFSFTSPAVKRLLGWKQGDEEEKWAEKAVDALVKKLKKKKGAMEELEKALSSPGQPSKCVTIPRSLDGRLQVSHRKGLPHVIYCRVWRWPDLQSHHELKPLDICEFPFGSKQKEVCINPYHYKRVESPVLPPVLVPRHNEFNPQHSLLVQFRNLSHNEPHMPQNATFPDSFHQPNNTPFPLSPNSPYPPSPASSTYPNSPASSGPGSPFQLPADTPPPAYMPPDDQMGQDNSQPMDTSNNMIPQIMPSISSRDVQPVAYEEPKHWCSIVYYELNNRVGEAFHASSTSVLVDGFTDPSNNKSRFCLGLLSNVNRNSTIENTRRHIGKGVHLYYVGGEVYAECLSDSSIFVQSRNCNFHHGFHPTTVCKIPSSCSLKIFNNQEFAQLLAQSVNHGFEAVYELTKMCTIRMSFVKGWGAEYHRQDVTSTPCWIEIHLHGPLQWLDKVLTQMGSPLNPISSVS
UniProt P36895, residues 24-532: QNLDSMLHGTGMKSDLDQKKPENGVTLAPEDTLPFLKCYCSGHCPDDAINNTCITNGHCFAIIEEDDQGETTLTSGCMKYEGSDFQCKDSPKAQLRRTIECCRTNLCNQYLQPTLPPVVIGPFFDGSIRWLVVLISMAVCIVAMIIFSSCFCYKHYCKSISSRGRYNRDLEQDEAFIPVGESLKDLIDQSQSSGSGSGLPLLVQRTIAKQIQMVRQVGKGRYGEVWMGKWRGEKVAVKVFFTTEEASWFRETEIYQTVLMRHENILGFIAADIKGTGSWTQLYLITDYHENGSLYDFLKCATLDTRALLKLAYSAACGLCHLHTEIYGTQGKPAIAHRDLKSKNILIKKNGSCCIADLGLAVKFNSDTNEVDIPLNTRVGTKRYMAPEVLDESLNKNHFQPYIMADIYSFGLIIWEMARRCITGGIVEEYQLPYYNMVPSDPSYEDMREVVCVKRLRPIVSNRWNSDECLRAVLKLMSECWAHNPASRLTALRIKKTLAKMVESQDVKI
UniProt Q13873, residues 27-1038: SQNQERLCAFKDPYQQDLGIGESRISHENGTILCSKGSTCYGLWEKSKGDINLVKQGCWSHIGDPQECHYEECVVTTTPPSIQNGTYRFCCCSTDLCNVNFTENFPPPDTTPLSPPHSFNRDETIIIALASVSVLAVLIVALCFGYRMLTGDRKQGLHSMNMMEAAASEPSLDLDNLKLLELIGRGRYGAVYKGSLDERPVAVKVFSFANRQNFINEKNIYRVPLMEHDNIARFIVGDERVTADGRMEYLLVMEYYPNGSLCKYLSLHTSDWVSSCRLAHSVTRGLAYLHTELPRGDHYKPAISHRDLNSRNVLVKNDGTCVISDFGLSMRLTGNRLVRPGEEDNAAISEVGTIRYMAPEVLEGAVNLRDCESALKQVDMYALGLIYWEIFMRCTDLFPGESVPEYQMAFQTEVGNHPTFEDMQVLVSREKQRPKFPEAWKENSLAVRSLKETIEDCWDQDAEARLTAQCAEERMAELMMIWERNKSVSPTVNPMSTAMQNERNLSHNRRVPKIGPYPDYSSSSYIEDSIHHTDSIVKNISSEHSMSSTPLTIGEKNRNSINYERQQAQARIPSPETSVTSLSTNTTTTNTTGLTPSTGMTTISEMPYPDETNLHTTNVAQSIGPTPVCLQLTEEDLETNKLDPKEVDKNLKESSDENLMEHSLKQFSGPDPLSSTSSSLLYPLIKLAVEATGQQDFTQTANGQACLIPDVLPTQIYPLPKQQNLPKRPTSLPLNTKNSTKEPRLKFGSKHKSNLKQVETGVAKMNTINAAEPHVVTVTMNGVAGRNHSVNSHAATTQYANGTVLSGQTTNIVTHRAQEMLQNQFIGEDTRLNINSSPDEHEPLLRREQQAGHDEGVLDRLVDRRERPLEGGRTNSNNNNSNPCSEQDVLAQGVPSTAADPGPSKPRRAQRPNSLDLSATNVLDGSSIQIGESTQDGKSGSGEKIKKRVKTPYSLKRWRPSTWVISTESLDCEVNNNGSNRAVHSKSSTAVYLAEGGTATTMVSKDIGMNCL

One assay addresses FAM134B-FLAG (UniProt Q9H6L5). Nature of the assay: co-IP; HEK293T co-transfected, harvested 24 h after transfection; FLAG-tagged FAM134 protein immunoprecipitated with anti-FLAG antibody and protein A Sepharose; HA-tagged partner or endogenous LC3 detected by Western blotting.
Another assay concerns the target T1, FAM134A-FLAG (UniProt Q8NC44).
T1 sequence: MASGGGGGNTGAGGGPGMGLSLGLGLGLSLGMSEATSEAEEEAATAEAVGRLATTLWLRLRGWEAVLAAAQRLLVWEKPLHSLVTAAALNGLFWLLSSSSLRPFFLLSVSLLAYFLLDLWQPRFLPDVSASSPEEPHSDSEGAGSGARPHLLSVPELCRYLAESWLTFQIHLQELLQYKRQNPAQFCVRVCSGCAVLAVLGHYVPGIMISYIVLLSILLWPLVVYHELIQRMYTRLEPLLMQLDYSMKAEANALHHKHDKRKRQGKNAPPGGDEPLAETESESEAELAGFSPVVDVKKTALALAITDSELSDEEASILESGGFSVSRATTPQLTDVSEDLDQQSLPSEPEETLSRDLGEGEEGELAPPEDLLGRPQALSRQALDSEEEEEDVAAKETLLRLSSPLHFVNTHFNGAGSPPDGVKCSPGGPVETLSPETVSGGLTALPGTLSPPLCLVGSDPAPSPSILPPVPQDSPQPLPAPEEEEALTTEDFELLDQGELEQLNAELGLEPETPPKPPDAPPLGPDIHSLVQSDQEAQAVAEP
The assay is described as above.

A further assay has as its target FAM134C-FLAG (UniProt Q86VR2). The assay is described as above.
Assay [1] deals with FAM134C (endogenous, human cell lines) (human (endogenous in HEK293T, A549, U2OS)) (UniProt Q86VR2). Nature of the assay: co-IP; endogenous FAM134C immunoprecipitated by FAM134C antibody in HEK293T, C2C12, A549, U2OS (FAM134C knockout U2OS as control), BMPR1A detected by Western blotting; also U2OS with stable knock-down of ATG5 or BECN1. On the technique in general: A western blot detects proteins with antibodies after separation by electrophoresis.

A further assay deals with YC-FAM134C (UniProt Q86VR2). In words: split reporter; BiFC: YN and YC fragments of YFP/Venus fused to the partners in pcDNA3, co-transfected in U2OS or A549 cells, confocal microscopy.
In assay [2] the target is T2, FAM134C (endogenous, C2C12 cells) (mouse (endogenous in C2C12)) (UniProt Q9CQV4).
T2 sequence: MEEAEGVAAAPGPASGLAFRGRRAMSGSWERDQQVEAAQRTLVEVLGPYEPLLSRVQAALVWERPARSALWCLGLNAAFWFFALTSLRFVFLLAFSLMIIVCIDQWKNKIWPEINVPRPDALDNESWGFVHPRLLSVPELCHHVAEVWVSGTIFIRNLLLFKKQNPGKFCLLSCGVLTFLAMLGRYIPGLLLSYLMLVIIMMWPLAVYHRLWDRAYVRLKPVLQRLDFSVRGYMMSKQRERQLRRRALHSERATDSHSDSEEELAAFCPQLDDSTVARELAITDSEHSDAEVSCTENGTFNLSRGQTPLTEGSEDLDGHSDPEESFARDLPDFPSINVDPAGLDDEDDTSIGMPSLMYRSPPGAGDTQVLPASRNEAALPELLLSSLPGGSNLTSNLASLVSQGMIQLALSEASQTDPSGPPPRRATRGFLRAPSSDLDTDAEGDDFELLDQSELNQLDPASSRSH
Nature of the assay: co-IP; endogenous FAM134C immunoprecipitated by FAM134C antibody in HEK293T, C2C12, A549, U2OS (FAM134C knockout U2OS as control), BMPR1A detected by Western blotting; also U2OS with stable knock-down of ATG5 or BECN1.

Assay [3] concerns the target BMPR1A-HA (in vitro translated) (UniProt P36894). Nature of the assay: co-IP; in vitro translated (TNT system) Smad5-HA or BMPR1A-HA incubated with MYC-FAM134C, immunoprecipitation with anti-HA antibodies, Western blotting.
In assay [4] the target is Smad5-HA (in vitro translated) (UniProt Q99717). Described as above.

Consider “BMPR1A-HA (from UniProt P36894 24-532) (receptor)”, for which the binding result in the assay with FAM134B-FLAG is on record as “binds weakly”; in the assay with FAM134A-FLAG, “no binding”; in the assay with FAM134C-FLAG, “binds”.
“BMPR1A (endogenous, human cell lines) (from UniProt P36894 24-532) (receptor)”: the binding result in assay [1] is “binds”.
In the case of “YN-BMPR1A (from UniProt P36894 24-532) (receptor)”, the binding entry with YC-FAM134C is “binds”.
Regarding Smad5-HA (from UniProt Q99717 1-465), the binding entry with FAM134C-FLAG was “no binding”.
In the case of “BMPR1A (endogenous, C2C12 cells) (from UniProt P36895 24-532) (receptor)”, in assay [2], the binding result was “binds”.
For “BMPR1A(ECD)-HA (from UniProt P36894 24-152) (domain or fragment)”, in the assay with FAM134C-FLAG, the binding result is recorded as “no binding”.
For MYC-FAM134C (from UniProt Q86VR2 1-466), the binding entry in assay [3] is “binds”; in assay [4], “no binding”.
With “BMPR2-HA (from UniProt Q13873 27-1038) (receptor)”, the binding result with FAM134C-FLAG is “no binding”.
